The campaign covered roughly 94,000 compounds. About 4,000 (4.3%) were called active. The inconclusive results got no clear call from the source; some entries with a clear call stand among them for comparison. The call rests on the fitted dose curve; in most records, active means well fitted inhibition curve with a large enough effect; inconclusive means small, poorly fitted or top-dose-only effect; inactive means no such curve, though single readings can be large or run the other way. Where the call is inconclusive, the potency comes from a doubtful curve fit.
test: Cytotoxic Profiling in NIH 3T3 Cell Line of Diverse Libraries Using Quantitative High-Throughput Screening; conditions: NIH 3T3 viability, CellTiter-Glo ATP luminescence, 48-72 h; activity change, negative = cytotoxicity: at 96.7 µM (top of the series); series mostly up to 96.7 µM; further: nearly all actives have a fitted effect of over 55% in size
In short: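 Cells were seeded at 400 per well, treated with pin-transferred compound, and kept 48 or 72 hr at 37 °C before CellTiter-Glo addition and luminescence imaging of cellular ATP.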
On the % scale 0 is the no-effect control and ±100 the full control effect; potency means the concentration at half of the fitted maximal effect; tags describe the fitted curve by direction and shape.

| SMILES | Potency | activity change, negative = cytotoxicity | outcome |
| --- | --- | --- | --- |
| COc1cccc(-c2cc(C(=O)NCC#N)c3cnn(C)c3n2)c1 | active: 39.8 µM | – | – |
| Cc1cccnc1NC(=O)C1c2ccccc2C(=O)N(C2CCCC2)C12CCCC2 (stereo not given) | inconclusive: 70.8 µM [inhibitor, single point] | – | – |
| COc1cc(-c2nc(-c3c(C)noc3C)cc3cc(C)oc23)ccn1 | inconclusive: 17.8 µM [inhibitor, full curve, poor fit] | – | – |
| COc1ccc(C(=O)N[C@H]2CO[C@H]3[C@@H]2OC[C@@H]3n2cc(-c3ccccn3)nn2)cc1 | inconclusive: 89.1 µM [inhibitor, partial curve, poor fit] | – | – |
| CCOc1ccccc1NC(=O)N1CCCC(Cn2cnc3cccnc32)C1 (stereo not given) | – | inactive: -19.8% | – |
| O=C(NCc1cccs1)c1ccc2c(c1)CC(=O)N2Cc1ccc(F)cc1 | – | inactive: -19.6% | – |
| CCCN(CC1CCOC1)C(=O)c1ccc(C(F)(F)F)cc1 (stereo not given) | – | inactive: -4.2% | – |
| O=C(CCc1ccccc1)Nc1ccc([C@@H](O)[C@H]2COCC(=O)N2Cc2ccccc2F)cc1 | inconclusive: 50.1 µM [inhibitor, partial curve, poor fit] | – | – |
| COc1ccc(-c2ccc3ncc(Nc4cccnc4OC)n3n2)cn1 | inconclusive: 8.91 µM [inhibitor, full curve, poor fit] | – | – |
| CCCCc1cc(C[C@H]2CNCC[C@H]2CC(=O)NC2CCCCC2)no1 | inconclusive: 126 µM [inhibitor, single point] | – | – |
| Cc1noc(C)c1-c1cc2cc(CNC3CCOCC3)oc2c(NC2CCN(C)CC2)n1 | active: 39.8 µM | – | – |
| O=C(O)C[C@@H]1CCN(C(=O)c2ccc(C(F)(F)F)cc2)C[C@@H]1CCN1CCN(c2cccc(C(F)(F)F)c2)CC1 | inconclusive: 63.1 µM [inhibitor, partial curve, poor fit] | – | – |
| CNC(=O)[C@@H]1C[C@@H](O)CN1C1CCN(C(=O)CCc2c[nH]c3ccccc23)CC1 | – | inactive: -20.5% | – |
| O=C(Cc1ccccn1)N1CCN(c2nccc(Nc3ccccc3F)n2)CC1 | inconclusive: 70.8 µM [inhibitor, single point] | – | – |
| COCCOC1CCN(C(=O)c2cccc3[nH]ccc23)CC1 | – | – | inactive |
| CC(=O)Nc1cccc(C(=O)NC2CCCN(c3cc(-c4ccccc4)[nH]n3)C2)c1 (stereo not given) | inconclusive: 11.2 µM [inhibitor, partial curve, poor fit] | – | – |
| CC(C)(C)CN1CCNc2cc(Nc3cccnc3)ncc2C1 | inconclusive: 8.91 µM [inhibitor, full curve, poor fit] | – | – |
| CCOC(=O)C1CCN(C(=O)c2cc(-c3ccncc3)cn2Cc2ccc(C)cc2)CC1 | inconclusive: 50.1 µM [inhibitor, partial curve, poor fit] | – | – |
| CNC(=O)c1cc(C2CC2)nc2c1c(C1CCCN(C(=O)Cc3cccc(Cl)c3)C1)nn2C (stereo not given) | inconclusive: 44.7 µM [inhibitor, partial curve, poor fit] | – | – |
| CCCCS(=O)(=O)N1CC(n2cc(COc3ccccc3)nn2)C1 | – | inactive: -7.78% | – |

| SMILES | Potency | activity change, negative = cytotoxicity | outcome |
| --- | --- | --- | --- |
| COc1ccc(CCc2nc3nccc(-c4ccc(OC)c(OC)c4)n3n2)cc1OC | inconclusive: 50.1 µM [inhibitor, partial curve, poor fit] | – | – |
| Cc1noc(C)c1CCCNC(=O)CCC[C@@H]1[C@H]2CCCN3CCC[C@@H](CN1C)[C@@H]23 | – | – | inactive |
| O=C(c1ccc(-c2ccc(CO)cc2)nc1)N1CCC(Oc2cccnc2)CC1 | inconclusive: 79.4 µM [inhibitor, partial curve, poor fit] | – | – |
| CC(C)CN1CCOC[C@H](Oc2ccc(C(F)(F)F)cc2)C1 | inconclusive: 89.1 µM [inhibitor, single point] | – | – |
| Cc1nn2c(c1-c1ccccc1-c1ccccc1)N(C(=O)c1ccn(C)n1)CCC2 | inconclusive: 112 µM [inhibitor, single point] | – | – |
| c1ccc2[nH]c([C@H]3CCN(CC4CCCCC4)C3)nc2c1 | inconclusive: 112 µM [inhibitor, partial curve, poor fit] | – | – |
| O=C(NC1CCCC1)C1CCN(Cc2ccccc2-c2cccnc2)CC1 | inconclusive: 50.1 µM [inhibitor, partial curve, poor fit] | – | – |
| O=[S+]([O-])(CCC(F)(F)F)N1CCC2(CC1)CC(c1cccc(C(F)(F)F)c1)=NO2 | – | inactive: -19.7% | – |
| Oc1ccccc1CN1C[C@H](O)C[C@H]1c1nc(-c2ccc(F)cc2)no1 | inconclusive: 112 µM [inhibitor, single point] | – | – |
| COc1ncccc1CNC[C@H]1Cn2cc(-c3ccc4c(c3)OCCCO4)nc2CO1 | inconclusive: 100 µM [inhibitor, single point] | – | – |
| O=C(Nc1ccc(C(F)(F)F)cc1)N1CCC2(CC1)C(=O)NCN2Cc1ccc(Cl)cc1 | inconclusive: 50.1 µM [inhibitor, partial curve, poor fit] | – | – |
| CC(C)(C)NC(=O)NCc1nnc2n1C(C(=O)NCc1ccccc1Cl)CC2 (stereo not given) | – | inactive: -29.2% | – |
| COc1ccc(-c2nn(-c3ccccc3)cc2CN2CCC(CO)CC2)c(F)c1 | inconclusive: 89.1 µM [inhibitor, single point] | – | – |
| COCc1ccc2c(c1)c(OC(C)(C)C(=O)Nc1ccccn1)nn2Cc1cccc(OC)c1 | inconclusive: 44.7 µM [inhibitor, partial curve, poor fit] | – | – |
| CCC(CC)C(=O)NC[C@H]1O[C@@H](CC(=O)N2CCN(c3ccccc3OC)CC2)[C@H](O)[C@@H]1O | – | inactive: -6.99% | – |
| Cn1c(C(=O)NC(C)(C)C)cc2c1CCN(Cc1ccc(F)cc1)C2 | – | inactive: -7.79% | – |
| O=C1CCN(CC(O)COCc2ccco2)c2cc3c(cc2CN1Cc1ccccc1)OCO3 (stereo not given) | inconclusive: 50.1 µM [inhibitor, partial curve, poor fit] | – | – |
| CC(=O)NC1(C)CCN(Cc2cccc(Oc3ccccc3)c2)CC1 | – | inactive: -19% [at 138 µM] | – |
| Clc1ccccc1Nc1cnc2ccc(N3CCOCC3)nn12 | inconclusive: 20 µM [inhibitor, full curve, poor fit] | – | – |
| COc1cc(NC(=O)N2CC[C@H](c3nc4ccccc4o3)C2)cc(OC)c1 | inconclusive: 126 µM [inhibitor, single point] | – | – |

From PubChem BioAssay AID1345082 (National Center for Advancing Translational Sciences (NCATS), 2018)
